Measured values as given in PubChem BioAssay AID504832 (National Center for Advancing Translational Sciences (NCATS), 2011).
The campaign covered roughly 310,000 compounds. About 18,000 (5.8%) were called active. Inconclusive means that the source gave no clear call. Such entries were picked first, then a sample of the others. The call rests on the fitted dose curve; in most records, active means well fitted inhibition curve with a large enough effect; inconclusive means small, poorly fitted or top-dose-only effect, or another doubt; inactive means no such curve, though single readings can be large or run the other way. Potencies of inconclusive entries are left out as doubtful fits.

Assay: Primary qHTS for delayed death inhibitors of the malarial parasite plastid, 48 hour incubation
Details: P. falciparum luciferase growth in erythrocytes; series mostly up to 28.7 µM; activity change, negative = inhibition: at the top concentration
In short: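 Luciferase-expressing P. falciparum in infected erythrocytes (2% hematocrit, 0.1% parasitemia final) in RPMI 1640/0.5% Albumax were exposed to compound for 48 hours at 37 C, 5% CO2; growth read as luminescence.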
On the % scale 0 is the no-effect control and ±100 the full control effect; potency means the concentration at half of the fitted maximal effect; tags describe the fitted curve by direction and shape.

SMILES	Potency	activity change, negative = inhibition
Cc1ccc(NC(=O)CSc2nc(=O)cc(N)n2CCc2ccccc2)cc1	inconclusive [inhibitor, partial curve]	–
N=c1n(CCOc2ccccc2)c2ccccc2n1CCN1CCOCC1	inconclusive [inhibitor, single point]	–
COC(=O)c1c(NC(=O)COC(=O)[C@@H](NS(=O)(=O)c2ccc(C)cc2)C(C)C)sc2c1CCC2	inconclusive [inhibitor, single point]	–
Cc1cc(C)cc(C(=O)NC(CC(N)=O)c2ccc(N3CCN(C)CC3)c([N+](=O)[O-])c2)c1 (centres undefined)	–	inactive: 9.49%
COc1cccc(C(=O)Oc2c(Br)cc(Br)cc2/C=N/NC(=O)c2cc(C)[nH]n2)c1	inconclusive [inhibitor, full curve, poor fit]	–
CCCCCNC(=O)C1CCC(Cn2c(=S)[nH]c3ccccc3c2=O)CC1 (centres undefined)	inconclusive [inhibitor, partial curve, poor fit]	–
O=C(Nc1ccccc1N1CCOCC1)c1cc(-c2ccncc2)nc2ccccc12	inconclusive [inhibitor, partial curve]	–
COC(=O)C1=C(c2ccc(C(C)=O)cc2)C[C@@H]2CC[C@H]1N2C(=O)NCc1ccc2c(c1)OCO2	active: 11.7 µM	–
O=C(c1ccccc1)c1ccccc1	–	inactive: 8.34%
Cc1nnc(NC(=O)CSc2nccn2-c2ccc(F)cc2)s1	inconclusive [inhibitor, partial curve, poor fit]	–
COc1ccc(N=Cc2c(O)c3ccccc3n2C(C)=O)cc1	inconclusive [inhibitor, single point]	–
CCN(CC)CC(=O)c1c[nH]c2ccc(C)cc12	inconclusive [inhibitor, single point]	–
Oc1cccc(NC(=S)N=Nc2c(O)[nH]c3ccc(Br)cc23)c1	inconclusive [inhibitor, single point]	–
CCCCN(C(=O)c1cc2c(s1)CCC2)c1c(N)n(CCCC)c(=O)[nH]c1=O	–	inactive: -0.0968%
O=C(NC1CCCC1)C(c1ccc(N2CCOCC2)cc1)N(Cc1ccco1)C(=O)c1ccco1 (centres undefined)	inconclusive [inhibitor, full curve, poor fit]	–
COc1c2ccoc2c(OC[C@@H](OC(C)=O)C(C)(C)O)c2oc(=O)ccc12	inconclusive [inhibitor, single point]	–
CCC1CCCCN1CCCNC(=O)Cn1cc2c(n1)-c1c(oc(C(=O)N3CCCC3)c1C)CC2 (centres undefined)	inconclusive [inhibitor, single point]	–
O=C(NCC(c1ccco1)N1CCCC1)c1cccc(S(=O)(=O)Nc2ccc(Br)cc2)c1 (centres undefined)	inconclusive [inhibitor, partial curve, poor fit]	–
COc1cc(CC(=O)OCC(=O)c2c[nH]c3ccccc23)cc(OC)c1OC	active: 4.15 µM	–
CCOc1ccc(/C=C/C(=O)N(CC)CC(=O)Nc2ccc3c(c2)OCCO3)cc1OC	inconclusive [inhibitor, single point]	–
COc1cc(/C=C2/SC(=S)N(CC(=O)O)C2=O)ccc1OC(=O)c1ccco1	–	inactive: 36%
CCOC(=O)N1CCN(C(=O)c2ccc3c(c2)N=C(CC)c2cc(C)ccc2S3)CC1	inconclusive [inhibitor, partial curve, poor fit]	–
CCN1CCN(c2cc(C)c3cc(NC(=O)CCC(=O)N4CCN(c5ccccc5OC)CC4)ccc3n2)CC1	inconclusive [inhibitor, partial curve, poor fit]	–

SMILES	Potency	activity change, negative = inhibition
O=C(c1cc(S(=O)(=O)N2CCOCC2)ccc1F)N1CCN(Cc2ccccc2)CC1	inconclusive [inhibitor, full curve, poor fit]	–
Cc1ccccc1-n1ccnc1SCC(=O)NC1CCCC1	–	inactive: 5.32%
COc1ccccc1NC(=O)CSc1sc2c(O)cc(=O)[nH]c2c1C#N	–	inactive: 17.5%
COc1ccc(-c2ccc(OC)cc2)cc1	inconclusive [inhibitor, partial curve, poor fit]	–
O=C(N/N=C/c1sc(=O)n(-c2ccccc2)c1Cl)c1ccccc1	inconclusive [inhibitor, full curve, poor fit]	–
CN(CCCC1CCCC1)C(=O)CC1C(=O)NCCN1Cc1ccc(F)cc1 (centres undefined)	inconclusive [inhibitor, single point]	–
COC(=O)c1ccc(CC(=O)c2c(C)cc(O)cc2O)o1	–	inactive: -1.41%
Cc1cccc([C@@H]2[C@@H]3C(=O)N(Cc4ccccc4)C(=O)[C@@H]3[C@]3(CC(C)C)C(=O)N(c4cccc(F)c4)C(=O)N23)c1	active: 9.28 µM	–
COc1ccc(-c2cc(C(=O)NCCCn3ccnc3)c3ccccc3n2)c(OC)c1	inconclusive [inhibitor, single point]	–
CCOc1ccc(NC2OC(CO)C(O)C(O)C2O)c([N+](=O)[O-])c1 (centres undefined)	–	inactive: 6.46%
CCOc1cccc(CN(C)CC2CCCN(CCc3ccc(Cl)cc3)C2)c1O (centres undefined)	active: 3.7 µM	–
CC1CCN(C2=C(NS(=O)(=O)c3ccccc3)C(=O)c3ccccc3C2=O)CC1	inconclusive [inhibitor, single point]	–
CC(C)(C)OC(=O)N1CCN(C(=O)Nc2ccc3c(c2)OCCO3)CC1	–	inactive: 173%
COCCNC(=O)C(c1ccc(O)cc1)N(C(=O)CCC(=O)Nc1nccs1)c1ccc(C)cc1 (centres undefined)	inconclusive [inhibitor, partial curve, poor fit]	–
Cc1ccc2cc(CN(Cc3ccco3)S(=O)(=O)c3c(C)ccc4nsnc34)c(=O)[nH]c2c1	inconclusive [inhibitor, single point]	–
Cc1ccc(NCCC(=O)c2ccc(Cl)cc2)cc1C	–	inactive: 43%
O=S(=O)(c1ccc(Cl)cc1)N1CCN(C2CCCCCC2)CC1	–	inactive: -2.69%
O=C(N/N=C\c1cccc(Cl)c1)c1ccc(Cn2cc(Br)c([N+](=O)[O-])n2)o1	inconclusive [inhibitor, full curve, poor fit]	–
Cc1cc(OCc2cc(C(=O)NCC3(C)COC3)no2)cc(C)c1Cl	–	inactive: -27.1%
O=C(O)c1ccc(NC2=C/C(=N/S(=O)(=O)c3ccccc3)c3ccccc3C2=O)cc1	inconclusive [inhibitor, partial curve]	–
Cc1ccc(Cn2c(=S)[nH]c3ccc(N4CCOCC4)cc3c2=O)o1	inconclusive [inhibitor, single point]	–
COc1ccc(N2C(=S)N=C(Nc3cccc(C)c3)C23CCCCC3)cc1	inconclusive [inhibitor, partial curve]	–
C/C(=N\NC(=O)CSCc1ccc([N+](=O)[O-])cc1)c1ccccc1O	inconclusive [inhibitor, single point]	–

SMILES	Potency	activity change, negative = inhibition
Cc1ccc(/C=C2\Sc3ccccc3C2=O)s1	inconclusive [inhibitor, partial curve, poor fit]	–
COc1ccc(CC(=O)NCc2ccccc2Cl)cc1S(=O)(=O)N1CCOCC1	inconclusive [inhibitor, partial curve, poor fit]	–
FC(F)(F)c1cc(-c2ccccc2)nc(NCc2cccnc2)n1	active: 3.7 µM	–
Cc1cc(-c2nnc(SCC(=O)Nc3ccc(F)cc3F)n2N)n[nH]1	–	inactive: 47.8%
CCc1ccc(CC)c(S(=O)(=O)Nc2ccc(C(=O)O)c(O)c2)c1	–	inactive: 0.227%
Cc1cc(C)c(C#N)c(SCc2ccc(F)cc2)n1	inconclusive [inhibitor, partial curve]	–
Cc1ccccc1Oc1cc(NC(=O)CCCn2nc(C)c([N+](=O)[O-])c2C)cc([N+](=O)[O-])c1	inconclusive [inhibitor, single point]	–
CCCCC(=NCCc1c(C)[nH]c2ccccc12)C1=C(O)CC(c2ccccc2)CC1=O (centres undefined)	active: 9.28 µM	–
FC(F)C(F)(F)C(F)(F)C(F)(F)c1cc(-c2ccccc2)n[nH]1	–	inactive: 18.5%
CCOC(=O)CNC(=O)CNC(=O)c1ccc(OC(C)C)cc1	–	inactive: 34.9%
Cc1nnc(NCc2ccco2)c2ccccc12	–	inactive: 19.6%
CCc1cc2c(C)cc(=O)oc2cc1Oc1ncccc1[N+](=O)[O-]	inconclusive [inhibitor, single point]	–
CC(=O)Nc1cccc(-c2nc3ccccc3o2)c1	–	inactive: 0%
O=C(NCCS(=O)(=O)NCc1ccc(F)cc1)c1ccccc1	–	inactive: -2.15%
Cc1cc(C)c(C(=O)NNC(=O)c2cccnc2)c(C)c1	–	inactive: 33.1%
CCCCc1ccc(NC=C2C(=O)OC3(CCCCC3)OC2=O)cc1	–	inactive: 5.94%
CSCC[C@H](NC(=O)N1CCn2c1nc1ccccc12)C(=O)NCc1ccc(C)cc1	inconclusive [inhibitor, partial curve, poor fit]	–
CNC(=O)c1[nH]cnc1C(=O)N[C@@H](CC(C)C)C(=O)OC(C)(C)C	inconclusive [inhibitor, partial curve, poor fit]	–
O=C(NCCO)C(=O)NCC1OCCCN1S(=O)(=O)c1cccs1 (centres undefined)	–	inactive: 27.7%
CCC(=O)c1ccc(OCC(=O)O)cc1	–	inactive: 5.56%
CC(C)(C)c1cc(NC(=O)c2ccco2)n(-c2ccccc2)n1	inconclusive [inhibitor, single point]	–
COc1cc2[nH]c(C(=O)N3CC(C)OC(C)C3)cc2c(OC)c1OC (centres undefined)	–	inactive: -0.339%
CC(=O)Nc1ccc(S(=O)(=O)NC2CC(=O)N(c3ccc4c(c3)OCCO4)C2)cc1 (centres undefined)	inconclusive [inhibitor, partial curve, poor fit]	–
